# Data published in the supplement of paper PMC8728848.
# The other results are listed elsewhere or left out.
# B1: PX14379A-bvu-539-28-539 (Bacteroides vulgatus) (protein)
# chain: EPYSEIIEEDYVPTEADEIALLATTYSQLRFVMDWYGLFDLQEESGDVIVTPTRPNGWDDGGTYKQMHKHTWDNQQGQPQSIWDYCYKGIANANKILKRADEGFFTEESKPKVVAEVKGVRALWYSILCDTHGNIPIQTSFSEEVPVQSTRKQVFDFIINELKEVMPNLPTEVNKSTYGRLTQWGAKCLMARMYLNAGVYTGTPMWNECLEQCNDIINSGLFSLETNYTDIFKTENSGCVETIFAIPYDEVYNEGDNNGPVFGAHMKFLSSNSRKVFNMQTTPWGGSAANPQFINSYDPDDMRLKYTWLQGDQYSPDGVLITTFPNKLPSIYKTDTDDGYRVGKYEIKVGAKSLLSNDFPYFRYTEVLLMKAECLLRLGQNETEAAHIVSQIRERAFRESAHPEKATVDAAWLKGDTHINYGTLDEKGQIDDAGNTEVVELGGLYDEWGWEFAAEARRRTDMIRFGTYQKKSWFNHTPTANDLNGNSILFPIHLDHLNTNPNLQQNPGYAGK
# What was measured:
# Test in all cases: glycan array binding signal (z-score within array); higher = stronger binding
# Conditions in all cases: glycan notation: IUPAC condensed, linker removed
# [1] = target: GlcNAc(b1-3)Gal(b1-4)GlcNAc(b1-3)Gal(b1-4)GlcNAc(b1-2)Man(a1-3)[GlcNAc(b1-3)Gal(b1-4)GlcNAc(b1-3)Gal(b1-4)GlcNAc(b1-2)Man(a1-6)]Man(b1-4)GlcNAc(b1-4)[Fuc(a1-6)]GlcNAc
# Summary of the method: (§1)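 Columns mapping to the same glycan were averaged after glycan names were converted to IUPAC-condensed notation. The data come from 3228 arrays in the Consortium for Functional Glycomics database, limited to those with an available protein sequence. Binding is reported as a within-array Z-score averaged across arrays of one protein sequence and across linkers.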
# [2] = target: GlcNAc(b1-3)Gal(b1-4)GlcNAc(b1-3)Gal(b1-4)GlcNAc(b1-2)[GlcNAc(b1-3)Gal(b1-4)GlcNAc(b1-3)Gal(b1-4)GlcNAc(b1-6)]Man(a1-6)[GlcNAc(b1-3)Gal(b1-4)GlcNAc(b1-3)Gal(b1-4)GlcNAc(b1-2)Man(a1-3)]Man(b1-4)GlcNAc(b1-4)[Fuc(a1-6)]GlcNAc
# Summary of the method: as §1
# [3] = target: GlcNAc(b1-3)Gal(b1-4)GlcNAc(b1-3)Gal(b1-4)GlcNAc(b1-3)Gal(b1-4)GlcNAc(b1-2)Man(a1-3)[GlcNAc(b1-3)Gal(b1-4)GlcNAc(b1-3)Gal(b1-4)GlcNAc(b1-3)Gal(b1-4)GlcNAc(b1-2)Man(a1-6)]Man(b1-4)GlcNAc(b1-4)GlcNAc
# Summary of the method: as §1
# [4] = target: GlcNAc(b1-3)Gal(b1-4)GlcNAc(b1-3)Gal(b1-4)GlcNAc(b1-3)Gal(b1-4)GlcNAc(b1-2)Man(a1-3)[GlcNAc(b1-3)Gal(b1-4)GlcNAc(b1-3)Gal(b1-4)GlcNAc(b1-3)Gal(b1-4)GlcNAc(b1-2)Man(a1-6)]Man(b1-4)GlcNAc(b1-4)[Fuc(a1-6)]GlcNAc
# Summary of the method: as §1
# [5] = target: GlcNAc(b1-3)Gal(b1-4)GlcNAc(b1-3)Gal(b1-4)GlcNAc(b1-3)Gal(b1-4)GlcNAc(b1-2)[GlcNAc(b1-3)Gal(b1-4)GlcNAc(b1-3)Gal(b1-4)GlcNAc(b1-3)Gal(b1-4)GlcNAc(b1-6)]Man(a1-6)[GlcNAc(b1-3)Gal(b1-4)GlcNAc(b1-3)Gal(b1-4)GlcNAc(b1-3)Gal(b1-4)GlcNAc(b1-2)Man(a1-3)]Man(b1-4)GlcNAc(b1-4)[Fuc(a1-6)]GlcNAc
# Summary of the method: as §1
# [6] = target: GlcNAc(b1-3)Gal(b1-4)GlcNAc(b1-3)Gal(b1-4)GlcNAc(b1-3)Gal(b1-4)GlcNAc(b1-3)Gal(b1-4)GlcNAc(b1-2)Man(a1-3)[GlcNAc(b1-3)Gal(b1-4)GlcNAc(b1-3)Gal(b1-4)GlcNAc(b1-3)Gal(b1-4)GlcNAc(b1-3)Gal(b1-4)GlcNAc(b1-2)Man(a1-6)]Man(b1-4)GlcNAc(b1-4)GlcNAc
# Summary of the method: as §1
# [7] = target: GlcNAc(b1-3)Gal(b1-4)GlcNAc(b1-3)Gal(b1-4)GlcNAc(b1-3)Gal(b1-4)GlcNAc(b1-3)Gal(b1-4)GlcNAc(b1-2)Man(a1-3)[GlcNAc(b1-3)Gal(b1-4)GlcNAc(b1-3)Gal(b1-4)GlcNAc(b1-3)Gal(b1-4)GlcNAc(b1-3)Gal(b1-4)GlcNAc(b1-2)Man(a1-6)]Man(b1-4)GlcNAc(b1-4)[Fuc(a1-6)]GlcNAc
# Summary of the method: as §1
# [8] = target: GlcNAc(b1-3)Gal(b1-4)GlcNAc(b1-3)Gal(b1-4)GlcNAc(b1-3)Gal(b1-4)GlcNAc(b1-3)Gal(b1-4)GlcNAc(b1-2)[GlcNAc(b1-3)Gal(b1-4)GlcNAc(b1-3)Gal(b1-4)GlcNAc(b1-3)Gal(b1-4)GlcNAc(b1-3)Gal(b1-4)GlcNAc(b1-6)]Man(a1-6)[GlcNAc(b1-3)Gal(b1-4)GlcNAc(b1-3)Gal(b1-4)GlcNAc(b1-3)Gal(b1-4)GlcNAc(b1-3)Gal(b1-4)GlcNAc(b1-2)Man(a1-3)]Man(b1-4)GlcNAc(b1-4)[Fuc(a1-6)]GlcNAc
# Summary of the method: as §1
# [9] = target: GlcNAc(b1-3)Gal(b1-4)GlcNAc(b1-3)Gal(b1-4)GlcNAc(b1-3)GalNAc
# Summary of the method: as §1
# [10] = target: GlcNAc(b1-3)Gal(b1-4)GlcNAc(b1-3)GalNAc
# Summary of the method: as §1
# [11] = target: GlcNAc(b1-3)Gal(b1-4)GlcNAc(b1-3)[GlcNAc(b1-3)Gal(b1-4)GlcNAc(b1-3)]GalNAc
# Summary of the method: as §1
# [12] = target: GlcNAc(b1-3)Gal(b1-4)GlcNAc(b1-6)[Gal(b1-3)]GalNAc
# Summary of the method: as §1
# [13] = target: GlcNAc(b1-3)Gal(b1-4)GlcNAc(b1-6)[GlcNAc(b1-3)Gal(b1-3)]GalNAc
# Summary of the method: as §1
# [14] = target: GlcNAc(b1-3)Gal(b1-4)GlcNAc(b1-6)[GlcNAc(b1-3)]Gal(b1-4)GlcNAc
# Summary of the method: as §1
# GlcNAc(b1-3)GalNAc = target: GlcNAc(b1-3)GalNAc
# Summary of the method: as §1
# GlcNAc(b1-3)Man = target: GlcNAc(b1-3)Man
# Summary of the method: as §1
# [15] = target: GlcNAc(b1-3)[GlcNAc(b1-4)][GlcNAc(b1-6)]GlcNAc
# Summary of the method: as §1
# [16] = target: GlcNAc(b1-3)[GlcNAc(b1-6)]Gal(b1-4)GlcNAc
# Summary of the method: as §1
# [17] = target: GlcNAc(b1-3)[GlcNAc(b1-6)]GalNAc
# Summary of the method: as §1
# [18] = target: GlcNAc(b1-4)Gal(b1-4)GlcNAc
# Summary of the method: as §1
# GlcNAc(b1-4)GlcNAc = target: GlcNAc(b1-4)GlcNAc
# Summary of the method: as §1
# [19] = target: GlcNAc(b1-4)GlcNAc(b1-4)GlcNAc
# Summary of the method: as §1
# [20] = target: GlcNAc(b1-4)GlcNAc(b1-4)GlcNAc(b1-4)GlcNAc(b1-4)GlcNAc
# Summary of the method: as §1
# [21] = target: GlcNAc(b1-4)GlcNAc(b1-4)GlcNAc(b1-4)GlcNAc(b1-4)GlcNAc(b1-4)GlcNAc
# Summary of the method: as §1
# [22] = target: GlcNAc(b1-4)[GlcNAc(b1-6)]GalNAc
# Summary of the method: as §1
# [23] = target: GlcNAc(b1-6)Gal(b1-4)GlcNAc
# Summary of the method: as §1
# GlcNAc(b1-6)GalNAc = target: GlcNAc(b1-6)GalNAc
# Summary of the method: as §1
# [24] = target: GlcNAc6S(b1-3)Gal(b1-4)GlcNAc
# Summary of the method: as §1
# Kdn(a2-3)Gal(b1-3)GalNAc = target: Kdn(a2-3)Gal(b1-3)GalNAc
# Summary of the method: as §1
# Kdn(a2-3)Gal(b1-3)GlcNAc = target: Kdn(a2-3)Gal(b1-3)GlcNAc
# Summary of the method: as §1
# Kdn(a2-3)Gal(b1-4)Glc = target: Kdn(a2-3)Gal(b1-4)Glc
# Summary of the method: as §1
# Kdn(a2-3)Gal(b1-4)GlcNAc = target: Kdn(a2-3)Gal(b1-4)GlcNAc
# Summary of the method: as §1
# [25] = target: Kdn(a2-3)Gal(b1-4)[Fuc(a1-3)]GlcNAc
# Summary of the method: as §1
# Kdn(a2-6)Gal(b1-4)GlcNAc = target: Kdn(a2-6)Gal(b1-4)GlcNAc
# Summary of the method: as §1
# [26] = target: Man(a1-2)Man(a1-2)Man(a1-3)Man
# Summary of the method: as §1
# [27] = target: Man(a1-2)Man(a1-2)Man(a1-6)[Man(a1-3)]Man
# Summary of the method: as §1
# Man(a1-2)Man(a1-3)Man = target: Man(a1-2)Man(a1-3)Man
# Summary of the method: as §1
# [28] = target: Man(a1-2)Man(a1-3)[Man(a1-2)Man(a1-6)]Man
# Summary of the method: as §1
binder,measurement,setting,value
B1,glycan array binding signal (z-score),[1],0.202
same,glycan array binding signal (z-score),[2],-0.38
same,glycan array binding signal (z-score),[3],-0.121
same,glycan array binding signal (z-score),[4],0.526
same,glycan array binding signal (z-score),[5],-0.29
same,glycan array binding signal (z-score),[6],-0.11
same,glycan array binding signal (z-score),[7],3.83
same,glycan array binding signal (z-score),[8],0.006
same,glycan array binding signal (z-score),[9],-0.443
same,glycan array binding signal (z-score),[10],-0.209
same,glycan array binding signal (z-score),[11],-0.376
same,glycan array binding signal (z-score),[12],-0.068
same,glycan array binding signal (z-score),[13],0.142
same,glycan array binding signal (z-score),[14],-0.033
same,glycan array binding signal (z-score),GlcNAc(b1-3)GalNAc,-0.386
same,glycan array binding signal (z-score),GlcNAc(b1-3)Man,-0.278
same,glycan array binding signal (z-score),[15],-0.135
same,glycan array binding signal (z-score),[16],-0.115
same,glycan array binding signal (z-score),[17],-0.185
same,glycan array binding signal (z-score),[18],-0.294
same,glycan array binding signal (z-score),GlcNAc(b1-4)GlcNAc,-0.24
same,glycan array binding signal (z-score),[19],-0.493
same,glycan array binding signal (z-score),[20],-0.624
same,glycan array binding signal (z-score),[21],-0.486
same,glycan array binding signal (z-score),[22],-0.239
same,glycan array binding signal (z-score),[23],0.374
same,glycan array binding signal (z-score),GlcNAc(b1-6)GalNAc,0.423
same,glycan array binding signal (z-score),[24],-0.091
same,glycan array binding signal (z-score),Kdn(a2-3)Gal(b1-3)GalNAc,0.276
same,glycan array binding signal (z-score),Kdn(a2-3)Gal(b1-3)GlcNAc,-0.356
same,glycan array binding signal (z-score),Kdn(a2-3)Gal(b1-4)Glc,-0.162
same,glycan array binding signal (z-score),Kdn(a2-3)Gal(b1-4)GlcNAc,-0.652
same,glycan array binding signal (z-score),[25],0.162
same,glycan array binding signal (z-score),Kdn(a2-6)Gal(b1-4)GlcNAc,-0.058
same,glycan array binding signal (z-score),[26],-0.44
same,glycan array binding signal (z-score),[27],-0.451
same,glycan array binding signal (z-score),Man(a1-2)Man(a1-3)Man,-0.335
same,glycan array binding signal (z-score),[28],-0.377
